Here are results for four compounds from the supplement of paper PMC4604168 (melanoma cell lines).

The structures appear in SMILES notation. The list shows a part of the results. Most values come without repeats; read them as rough.
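Further: cells treated in 1,536-well plates, then fixed and DAPI-stained, with nuclei counted from automated high-throughput microscope images.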

The experiment relates to RPMI7951. The experiment in a line: cell count relative to DMSO control; melanoma cells; higher = more viable cells. The following applies: library dose: standard library concentration; 72 h.
The compound `Cc1cc(Nc2cc(N3CCN(C)CC3)nc(Sc3ccc(NC(=O)C4CC4)cc3)n2)n[nH]1` [Tozasertib] + CC(=O)O[C@@]12CO[C@@H]1C[C@H](O)[C@@]1(C)C(=O)[C@H](O)C3=C(C)[C@@H](OC(=O)[C@H](O)[C@@H](NC(=O)OC(C)(C)C)c4ccccc4)C[C@@](O)([C@@H](OC(=O)c4ccccc4)[C@H]21)C3(C)C [Docetaxel] (first compound 0.03 µM, partner dose 0.0005 µM) returned a cell count of 29.7%. Then `CC[C@]1(O)C[C@H]2CN(CCc3c([nH]c4ccccc34)[C@@](C(=O)OC)(c3cc4c(cc3OC)N(C=O)[C@H]3[C@@](O)(C(=O)OC)[C@H](OC(C)=O)[C@]5(CC)C=CCN6CC[C@]43[C@@H]65)C2)C1` [vincristine] + Oc1nc(-c2ccc(C(F)(F)F)cc2)nc2c1CSCC2 [XAV939] (first compound 0.0005 µM, partner dose 10 µM), with 55.8%. Then `CC[C@]1(O)C[C@H]2CN(CCc3c([nH]c4ccccc34)[C@@](C(=O)OC)(c3cc4c(cc3OC)N(C=O)[C@H]3[C@@](O)(C(=O)OC)[C@H](OC(C)=O)[C@]5(CC)C=CCN6CC[C@]43[C@@H]65)C2)C1` [vincristine] + c1cc(-c2cnn3cc(-c4ccc(OCCN5CCCCC5)cc4)cnc23)ccn1 [Dorsomorphin] (first compound 0.0005 µM, partner dose 2 µM), with 29.2%; and `Cc1cc(Nc2cc(N3CCN(C)CC3)nc(Sc3ccc(NC(=O)C4CC4)cc3)n2)n[nH]1` [Tozasertib] + COc1ccc(-c2ccc3c(N4CCOCC4)nc(N4C[C@@H](C)O[C@@H](C)C4)nc3n2)cc1CO [KU0063794] (first compound 0.03 µM, partner dose 0.1 µM), with 82.6%.
